# The other results are listed elsewhere or left out.
# Legend:
# Experiment in all cases: glycan array binding signal (z-score within array); higher = stronger binding
# Settings in all cases: glycan notation: IUPAC condensed, linker removed
# [1] = target: Neu5Ac(a2-3)Gal(b1-3)[Fuc(a1-4)]GlcNAc(b1-3)Gal(b1-4)[Fuc(a1-3)]GlcNAc
# Procedure, shortened: (§1)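 The binding signal is a Z-score computed within each array. Data were drawn from 3228 arrays in the Consortium for Functional Glycomics database, restricted to those with a known protein sequence. Scores were averaged over arrays of the same protein sequence at different concentrations or buffers, and over linkers, and negative values can be taken as non-binding.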
# [2] = target: Neu5Ac(a2-3)Gal(b1-3)[Neu5Ac(a2-3)Gal(b1-4)]GlcNAc
# Procedure, shortened: as §1
# [3] = target: Neu5Ac(a2-3)Gal(b1-3)[Neu5Ac(a2-6)]GalNAc
# Procedure, shortened: as §1
# [4] = target: Neu5Ac(a2-3)Gal(b1-4)Glc
# Procedure, shortened: as §1
# [5] = target: Neu5Ac(a2-3)Gal(b1-4)GlcNAc
# Procedure, shortened: as §1
# [6] = target: Neu5Ac(a2-3)Gal(b1-4)GlcNAc(b1-2)Man(a1-3)[GlcNAc(b1-2)Man(b1-4)GlcNAc(b1-2)Man(a1-6)]Man(b1-4)GlcNAc(b1-4)GlcNAc
# Procedure, shortened: as §1
# [7] = target: Neu5Ac(a2-3)Gal(b1-4)GlcNAc(b1-2)Man(a1-3)[Neu5Ac(a2-6)Gal(b1-4)GlcNAc(b1-2)Man(a1-6)]Man(b1-4)GlcNAc(b1-4)GlcNAc
# Procedure, shortened: as §1
# [8] = target: Neu5Ac(a2-3)Gal(b1-4)GlcNAc(b1-3)Gal(b1-3)GlcNAc
# Procedure, shortened: as §1
# [9] = target: Neu5Ac(a2-3)Gal(b1-4)GlcNAc(b1-3)Gal(b1-4)GlcNAc
# Procedure, shortened: as §1
# [10] = target: Neu5Ac(a2-3)Gal(b1-4)GlcNAc(b1-3)Gal(b1-4)GlcNAc(b1-3)Gal(b1-4)GlcNAc
# Procedure, shortened: as §1
# [11] = target: Neu5Ac(a2-3)Gal(b1-4)GlcNAc(b1-3)Gal(b1-4)[Fuc(a1-3)]GlcNAc
# Procedure, shortened: as §1
# [12] = target: Neu5Ac(a2-3)Gal(b1-4)GlcNAc(b1-3)GalNAc
# Procedure, shortened: as §1
# [13] = target: Neu5Ac(a2-3)Gal(b1-4)GlcNAc(b1-6)[Gal(b1-3)]GalNAc
# Procedure, shortened: as §1
# [14] = target: Neu5Ac(a2-3)Gal(b1-4)GlcNAc(b1-6)[Neu5Ac(a2-3)Gal(b1-3)]GalNAc
# Procedure, shortened: as §1
# [15] = target: Neu5Ac(a2-3)Gal(b1-4)GlcNAc6S
# Procedure, shortened: as §1
# [16] = target: Neu5Ac(a2-3)Gal(b1-4)[Fuc(a1-3)]GlcNAc
# Procedure, shortened: as §1
# [17] = target: Neu5Ac(a2-3)Gal(b1-4)[Fuc(a1-3)]GlcNAc(b1-3)Gal
# Procedure, shortened: as §1
# [18] = target: Neu5Ac(a2-3)Gal(b1-4)[Fuc(a1-3)]GlcNAc(b1-3)Gal(b1-4)GlcNAc
# Procedure, shortened: as §1
# [19] = target: Neu5Ac(a2-3)Gal(b1-4)[Fuc(a1-3)]GlcNAc(b1-3)Gal(b1-4)[Fuc(a1-3)]GlcNAc(b1-3)Gal(b1-4)[Fuc(a1-3)]GlcNAc
# Procedure, shortened: as §1
# [20] = target: Neu5Ac(a2-3)Gal(b1-4)[Fuc(a1-3)]GlcNAc(b1-6)[Gal(b1-3)]GalNAc
# Procedure, shortened: as §1
# [21] = target: Neu5Ac(a2-3)Gal(b1-4)[Fuc(a1-3)]GlcNAc(b1-6)[Neu5Ac(a2-3)Gal(b1-3)]GalNAc
# Procedure, shortened: as §1
# [22] = target: Neu5Ac(a2-3)Gal(b1-4)[Fuc(a1-3)]GlcNAc6S
# Procedure, shortened: as §1
# [23] = target: Neu5Ac(a2-3)Gal6S(b1-4)GlcNAc
# Procedure, shortened: as §1
# [24] = target: Neu5Ac(a2-3)Gal6S(b1-4)[Fuc(a1-3)]GlcNAc
# Procedure, shortened: as §1
# [25] = target: Neu5Ac(a2-3)GalNAc
# Procedure, shortened: as §1
# [26] = target: Neu5Ac(a2-3)GalNAc(b1-4)GlcNAc
# Procedure, shortened: as §1
# [27] = target: Neu5Ac(a2-3)[GalNAc(b1-4)]Gal(b1-4)Glc
# Procedure, shortened: as §1
# [28] = target: Neu5Ac(a2-3)[GalNAc(b1-4)]Gal(b1-4)GlcNAc
# Procedure, shortened: as §1
# [29] = target: Neu5Ac(a2-3)[Neu5Ac(a2-6)]GalNAc
# Procedure, shortened: as §1
# [30] = target: Neu5Ac(a2-6)Gal
# Procedure, shortened: as §1
# [31] = target: Neu5Ac(a2-6)Gal(b1-4)Glc
# Procedure, shortened: as §1
# [32] = target: Neu5Ac(a2-6)Gal(b1-4)GlcNAc
# Procedure, shortened: as §1
# [33] = target: Neu5Ac(a2-6)Gal(b1-4)GlcNAc(b1-2)Man(a1-3)Man(b1-4)GlcNAc(b1-4)GlcNAc
# Procedure, shortened: as §1
# [34] = target: Neu5Ac(a2-6)Gal(b1-4)GlcNAc(b1-2)Man(a1-3)[Gal(b1-4)GlcNAc(b1-2)Man(a1-6)]Man(b1-4)GlcNAc(b1-4)GlcNAc
# Procedure, shortened: as §1
# [35] = target: Neu5Ac(a2-6)Gal(b1-4)GlcNAc(b1-2)Man(a1-3)[GlcNAc(b1-2)Man(a1-6)]Man(b1-4)GlcNAc(b1-4)GlcNAc
# Procedure, shortened: as §1
# [36] = target: Neu5Ac(a2-6)Gal(b1-4)GlcNAc(b1-2)Man(a1-3)[GlcNAc(b1-2)Man(b1-4)GlcNAc(b1-2)Man(a1-6)]Man(b1-4)GlcNAc(b1-4)GlcNAc
# Procedure, shortened: as §1
binder,measurement,setting,value
"Ficolin B (Rattus norvegicus), P57756 (protein) MVLGSAALFVLSLCVTELTLHAADTCPEVKVLDLEGSNKLTILQGCPGLPGALGPKGEAGAKGDRGESGLPGHPGKAGPTGPKGDRGEKGVRGEKGDTGPSQSCATGPRTCKELLTRGYFLTGWYTIYLPDCRPLTVLCDMDTDGGGWTVFQRRIDGTVDFFRDWTSYKQGFGSQLGEFWLGNDNIHALTTQGTNELRVDLADFDGNHDFAKYSSFQIQGEAEKYKLILGNFLGGGAGDSLTSQNNMLFSTKDQDNDQGSSNCAVRYHGAWWYSDCHTSNLNGLYLRGLHKSYANGVNWKSWKGYNYSYKVSEMKVRLI",glycan array binding signal (z-score),[1],-0.086
same,glycan array binding signal (z-score),[2],3.17
same,glycan array binding signal (z-score),[3],0.062
same,glycan array binding signal (z-score),[4],-0.175
same,glycan array binding signal (z-score),[5],-0.089
same,glycan array binding signal (z-score),[6],5.65
same,glycan array binding signal (z-score),[7],0.356
same,glycan array binding signal (z-score),[8],-0.149
same,glycan array binding signal (z-score),[9],1.04
same,glycan array binding signal (z-score),[10],-0.216
same,glycan array binding signal (z-score),[11],-0.114
same,glycan array binding signal (z-score),[12],-0.192
same,glycan array binding signal (z-score),[13],-0.202
same,glycan array binding signal (z-score),[14],0.865
same,glycan array binding signal (z-score),[15],-0.202
same,glycan array binding signal (z-score),[16],-0.212
same,glycan array binding signal (z-score),[17],0.01
same,glycan array binding signal (z-score),[18],-0.12
same,glycan array binding signal (z-score),[19],-0.218
same,glycan array binding signal (z-score),[20],-0.086
same,glycan array binding signal (z-score),[21],0.019
same,glycan array binding signal (z-score),[22],-0.102
same,glycan array binding signal (z-score),[23],-0.203
same,glycan array binding signal (z-score),[24],-0.221
same,glycan array binding signal (z-score),[25],-0.2
same,glycan array binding signal (z-score),[26],-0.227
same,glycan array binding signal (z-score),[27],-0.205
same,glycan array binding signal (z-score),[28],0.026
same,glycan array binding signal (z-score),[29],-0.082
same,glycan array binding signal (z-score),[30],-0.22
same,glycan array binding signal (z-score),[31],-0.202
same,glycan array binding signal (z-score),[32],-0.17
same,glycan array binding signal (z-score),[33],-0.173
same,glycan array binding signal (z-score),[34],-0.193
same,glycan array binding signal (z-score),[35],-0.22
same,glycan array binding signal (z-score),[36],0.578
